Test results: PMC7668044, “Insights into bacterial cell division from a structure of EnvC bound to the FtsX periplasmic domain” (Proceedings of the National Academy of Sciences of the …, 2020)
Results are given in words; binding and its absence hold for the method and conditions named. Some results given as binding are weak or reduced against the parent protein; the word gives no strength. Where a sequence is shown, tags or fusion partners need not be part of it.

T1: EnvC (35 to 419), bacterial two-hybrid fusion (E. coli) (UniProt P37690)
T1 sequence: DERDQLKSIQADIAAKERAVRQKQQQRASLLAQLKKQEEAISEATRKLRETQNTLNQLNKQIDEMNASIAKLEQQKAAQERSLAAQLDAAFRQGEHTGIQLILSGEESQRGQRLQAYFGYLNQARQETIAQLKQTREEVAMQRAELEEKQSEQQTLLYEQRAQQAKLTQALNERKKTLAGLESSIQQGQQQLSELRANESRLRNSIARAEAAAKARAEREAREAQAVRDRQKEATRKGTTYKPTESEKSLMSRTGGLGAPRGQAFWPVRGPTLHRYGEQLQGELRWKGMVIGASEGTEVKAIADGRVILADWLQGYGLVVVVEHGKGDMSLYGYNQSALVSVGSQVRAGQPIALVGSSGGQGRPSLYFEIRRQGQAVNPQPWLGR

T2: FtsE, wild type, bacterial two-hybrid fusion (E. coli) (UniProt P0A9R7)
T2 sequence: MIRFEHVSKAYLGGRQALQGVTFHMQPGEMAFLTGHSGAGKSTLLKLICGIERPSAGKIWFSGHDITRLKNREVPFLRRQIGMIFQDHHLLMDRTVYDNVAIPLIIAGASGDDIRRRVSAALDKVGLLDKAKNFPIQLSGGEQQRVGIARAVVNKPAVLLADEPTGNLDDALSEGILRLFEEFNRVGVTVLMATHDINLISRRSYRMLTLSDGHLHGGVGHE

T3: FtsA, bacterial two-hybrid fusion (UniProt P0ABH0)
T3 sequence: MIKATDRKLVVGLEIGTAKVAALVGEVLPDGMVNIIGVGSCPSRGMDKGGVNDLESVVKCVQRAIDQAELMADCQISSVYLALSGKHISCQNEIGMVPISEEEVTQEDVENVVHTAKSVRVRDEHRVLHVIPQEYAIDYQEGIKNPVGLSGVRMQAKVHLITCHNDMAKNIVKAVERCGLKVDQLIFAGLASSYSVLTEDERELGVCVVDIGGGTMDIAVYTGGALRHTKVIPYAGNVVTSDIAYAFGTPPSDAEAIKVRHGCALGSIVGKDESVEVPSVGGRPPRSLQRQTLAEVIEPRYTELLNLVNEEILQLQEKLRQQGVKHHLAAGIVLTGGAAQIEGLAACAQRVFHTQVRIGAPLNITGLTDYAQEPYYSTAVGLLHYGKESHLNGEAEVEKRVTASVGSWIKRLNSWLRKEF

T4: FtsX, wild type, bacterial two-hybrid fusion (Fig. 3B and 4E) (E. coli) (UniProt P0AC30)
T4 sequence: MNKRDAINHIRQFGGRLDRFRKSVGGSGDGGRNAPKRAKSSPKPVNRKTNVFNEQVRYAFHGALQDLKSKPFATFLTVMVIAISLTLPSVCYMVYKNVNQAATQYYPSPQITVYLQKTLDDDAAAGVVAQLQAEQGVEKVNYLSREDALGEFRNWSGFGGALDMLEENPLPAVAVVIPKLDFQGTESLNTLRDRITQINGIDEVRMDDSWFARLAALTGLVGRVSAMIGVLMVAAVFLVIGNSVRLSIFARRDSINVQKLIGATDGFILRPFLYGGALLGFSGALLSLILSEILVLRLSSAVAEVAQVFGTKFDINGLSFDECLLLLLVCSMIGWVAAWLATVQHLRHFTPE

T5: full-length NlpD (murein hydrolase activator), bacterial two-hybrid fusion (UniProt P0ADA3)
T5 sequence: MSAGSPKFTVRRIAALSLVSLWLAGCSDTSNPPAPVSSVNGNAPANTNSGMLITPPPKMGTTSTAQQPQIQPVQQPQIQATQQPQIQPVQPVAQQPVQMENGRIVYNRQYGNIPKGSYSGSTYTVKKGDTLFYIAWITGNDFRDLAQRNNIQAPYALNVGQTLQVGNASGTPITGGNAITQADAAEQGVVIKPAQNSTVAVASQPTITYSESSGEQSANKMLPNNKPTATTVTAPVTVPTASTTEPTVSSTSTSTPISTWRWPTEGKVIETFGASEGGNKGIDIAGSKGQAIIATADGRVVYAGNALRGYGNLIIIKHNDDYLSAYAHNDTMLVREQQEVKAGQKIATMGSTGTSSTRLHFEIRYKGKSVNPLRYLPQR


Experiments:
Experiment in all cases: two-hybrid; bacterial adenylate cyclase two hybrid (BACTH) system; E. coli BTH101 cells grown on IPTG/X-gal LB plates at room temperature; coloration followed over a time course
[1] = molecular target: T1, EnvC (35 to 419), bacterial two-hybrid fusion (E. coli)
[2] = molecular target: T2, FtsE, wild type, bacterial two-hybrid fusion (E. coli)
[3] = molecular target: T3, FtsA, bacterial two-hybrid fusion
[4] = molecular target: T4, FtsX, wild type, bacterial two-hybrid fusion (Fig. 3B and 4E) (E. coli)
[5] = molecular target: T5, full-length NlpD (murein hydrolase activator), bacterial two-hybrid fusion

binding [1] | Binder | further results
no binding | T18-FtsX periplasmic domain (110 to 209) Δ145-171 (X-lobe replaced by a pair of glycines) (domain or fragment, UniProt P0AC30) QITVYLQKTLDDDAAAGVVAQLQAEQGVEKVNYLSGGAVAVVIPKLDFQGTESLNTLRDRITQINGIDEVRMDDS | 
 | FtsX Δ145-171 variant, bacterial two-hybrid fusion (Fig. 3B) (protein, UniProt P0AC30) MNKRDAINHIRQFGGRLDRFRKSVGGSGDGGRNAPKRAKSSPKPVNRKTNVFNEQVRYAFHGALQDLKSKPFATFLTVMVIAISLTLPSVCYMVYKNVNQAATQYYPSPQITVYLQKTLDDDAAAGVVAQLQAEQGVEKVNYLSGGAVAVVIPKLDFQGTESLNTLRDRITQINGIDEVRMDDSWFARLAALTGLVGRVSAMIGVLMVAAVFLVIGNSVRLSIFARRDSINVQKLIGATDGFILRPFLYGGALLGFSGALLSLILSEILVLRLSSAVAEVAQVFGTKFDINGLSFDECLLLLLVCSMIGWVAAWLATVQHLRHFTPE | binding [2]: binds; binding [3]: binds; binding [4]: binds
 | FtsX F152E variant, bacterial two-hybrid fusion (Fig. 3B) (protein, UniProt P0AC30 1-352) MNKRDAINHIRQFGGRLDRFRKSVGGSGDGGRNAPKRAKSSPKPVNRKTNVFNEQVRYAFHGALQDLKSKPFATFLTVMVIAISLTLPSVCYMVYKNVNQAATQYYPSPQITVYLQKTLDDDAAAGVVAQLQAEQGVEKVNYLSREDALGEERNWSGFGGALDMLEENPLPAVAVVIPKLDFQGTESLNTLRDRITQINGIDEVRMDDSWFARLAALTGLVGRVSAMIGVLMVAAVFLVIGNSVRLSIFARRDSINVQKLIGATDGFILRPFLYGGALLGFSGALLSLILSEILVLRLSSAVAEVAQVFGTKFDINGLSFDECLLLLLVCSMIGWVAAWLATVQHLRHFTPE | binding [2]: binds; binding [3]: binds; binding [4]: binds
binds | T18-FtsX periplasmic domain (110 to 209) Y114E (domain or fragment, UniProt P0AC30 110-209) QITVELQKTLDDDAAAGVVAQLQAEQGVEKVNYLSREDALGEFRNWSGFGGALDMLEENPLPAVAVVIPKLDFQGTESLNTLRDRITQINGIDEVRMDDS | 
binds | T18-FtsX periplasmic domain (110 to 209) M164A (domain or fragment, UniProt P0AC30 110-209) QITVYLQKTLDDDAAAGVVAQLQAEQGVEKVNYLSREDALGEFRNWSGFGGALDALEENPLPAVAVVIPKLDFQGTESLNTLRDRITQINGIDEVRMDDS | 
binds | T18-FtsX periplasmic domain (residues 110 to 209), wild type (domain or fragment, UniProt P0AC30 110-209) QITVYLQKTLDDDAAAGVVAQLQAEQGVEKVNYLSREDALGEFRNWSGFGGALDMLEENPLPAVAVVIPKLDFQGTESLNTLRDRITQINGIDEVRMDDS | 
binds | T18-FtsX periplasmic domain (110 to 209) L165A (domain or fragment, UniProt P0AC30 110-209) QITVYLQKTLDDDAAAGVVAQLQAEQGVEKVNYLSREDALGEFRNWSGFGGALDMAEENPLPAVAVVIPKLDFQGTESLNTLRDRITQINGIDEVRMDDS | 
binds | T18-FtsX periplasmic domain (110 to 209) F158E (domain or fragment, UniProt P0AC30 110-209) QITVYLQKTLDDDAAAGVVAQLQAEQGVEKVNYLSREDALGEFRNWSGEGGALDMLEENPLPAVAVVIPKLDFQGTESLNTLRDRITQINGIDEVRMDDS | 
binds | T18-FtsX periplasmic domain (110 to 209) K117A (domain or fragment, UniProt P0AC30 110-209) QITVYLQATLDDDAAAGVVAQLQAEQGVEKVNYLSREDALGEFRNWSGFGGALDMLEENPLPAVAVVIPKLDFQGTESLNTLRDRITQINGIDEVRMDDS | 
binds | T18-FtsX periplasmic domain (110 to 209) Y114A (domain or fragment, UniProt P0AC30 110-209) QITVALQKTLDDDAAAGVVAQLQAEQGVEKVNYLSREDALGEFRNWSGFGGALDMLEENPLPAVAVVIPKLDFQGTESLNTLRDRITQINGIDEVRMDDS | 
binds | T18-FtsX periplasmic domain (110 to 209) W155A (domain or fragment, UniProt P0AC30 110-209) QITVYLQKTLDDDAAAGVVAQLQAEQGVEKVNYLSREDALGEFRNASGFGGALDMLEENPLPAVAVVIPKLDFQGTESLNTLRDRITQINGIDEVRMDDS | 
binds | T18-FtsX periplasmic domain (110 to 209) A161D (domain or fragment, UniProt P0AC30 110-209) QITVYLQKTLDDDAAAGVVAQLQAEQGVEKVNYLSREDALGEFRNWSGFGGDLDMLEENPLPAVAVVIPKLDFQGTESLNTLRDRITQINGIDEVRMDDS | 
binds | T18-FtsX periplasmic domain (110 to 209) F152A (domain or fragment, UniProt P0AC30 110-209) QITVYLQKTLDDDAAAGVVAQLQAEQGVEKVNYLSREDALGEARNWSGFGGALDMLEENPLPAVAVVIPKLDFQGTESLNTLRDRITQINGIDEVRMDDS | 
binds | T18-FtsX periplasmic domain (110 to 209) D202A (domain or fragment, UniProt P0AC30 110-209) QITVYLQKTLDDDAAAGVVAQLQAEQGVEKVNYLSREDALGEFRNWSGFGGALDMLEENPLPAVAVVIPKLDFQGTESLNTLRDRITQINGIAEVRMDDS | 
binds | T18-FtsX periplasmic domain (110 to 209) F158A (domain or fragment, UniProt P0AC30 110-209) QITVYLQKTLDDDAAAGVVAQLQAEQGVEKVNYLSREDALGEFRNWSGAGGALDMLEENPLPAVAVVIPKLDFQGTESLNTLRDRITQINGIDEVRMDDS | 
 | FtsE K41A, bacterial two-hybrid fusion (protein, UniProt P0A9R7 1-222) MIRFEHVSKAYLGGRQALQGVTFHMQPGEMAFLTGHSGAGASTLLKLICGIERPSAGKIWFSGHDITRLKNREVPFLRRQIGMIFQDHHLLMDRTVYDNVAIPLIIAGASGDDIRRRVSAALDKVGLLDKAKNFPIQLSGGEQQRVGIARAVVNKPAVLLADEPTGNLDDALSEGILRLFEEFNRVGVTVLMATHDINLISRRSYRMLTLSDGHLHGGVGHE | binding [4]: binds
 | FtsE E163Q, bacterial two-hybrid fusion (protein, UniProt P0A9R7 1-222) MIRFEHVSKAYLGGRQALQGVTFHMQPGEMAFLTGHSGAGKSTLLKLICGIERPSAGKIWFSGHDITRLKNREVPFLRRQIGMIFQDHHLLMDRTVYDNVAIPLIIAGASGDDIRRRVSAALDKVGLLDKAKNFPIQLSGGEQQRVGIARAVVNKPAVLLADQPTGNLDDALSEGILRLFEEFNRVGVTVLMATHDINLISRRSYRMLTLSDGHLHGGVGHE | binding [4]: binds
no binding | AmiC, bacterial two-hybrid fusion (enzyme, UniProt P63883 1-417) MSGSNTAISRRRLLQGAGAMWLLSVSQVSLAAVSQVVAVRVWPASSYTRVTVESNRQLKYKQFALSNPERVVVDIEDVNLNSVLKGMAAQIRADDPFIKSARVGQFDPQTVRMVFELKQNVKPQLFALAPVAGFKERLVMDLYPANAQDMQDPLLALLEDYNKGDLEKQVPPAQSGPQPGKAGRDRPIVIMLDPGHGGEDSGAVGKYKTREKDVVLQIARRLRSLIEKEGNMKVYMTRNEDIFIPLQVRVAKAQKQRADLFVSIHADAFTSRQPSGSSVFALSTKGATSTAAKYLAQTQNASDLIGGVSKSGDRYVDHTMFDMVQSLTIADSLKFGKAVLNKLGKINKLHKNQVEQAGFAVLKAPDIPSILVETAFISNVEEERKLKTATFQQEVAESILAGIKAYFADGATLARRG | binding [5]: no binding

Binder | binding [1] | further results
T18-FtsX periplasmic domain (110 to 209) R205A (domain or fragment, UniProt P0AC30 110-209) QITVYLQKTLDDDAAAGVVAQLQAEQGVEKVNYLSREDALGEFRNWSGFGGALDMLEENPLPAVAVVIPKLDFQGTESLNTLRDRITQINGIDEVAMDDS | binds | 
